Measured values: publication PMC10516938, “Conformational dynamics of cohesin/Scc2 loading complex are regulated by Smc3 acetylation and ATP binding” (Nature Communications, 2023)
Substitutions are numbered along the chain they refer to. Names and notes keep the numbering of the source. These are yes or no findings as the source states them, for the method shown. Binding seen in cells or lysates may run through a third protein. Some results given as binding are weak or reduced against the parent protein; the word gives no strength. Blank lines part the entries; values can stand above or below the binder they belong to.

Columns and labels:
[1] = target: T1, Smc3 E202C (S. cerevisiae) (UniProt P47037); experiment: cross-linking; in vivo BMOE cross-link of cysteine pairs in exponentially grown yeast cells (on ice, 6 min); Scc1-PK immunoprecipitated, western blot
T1 sequence: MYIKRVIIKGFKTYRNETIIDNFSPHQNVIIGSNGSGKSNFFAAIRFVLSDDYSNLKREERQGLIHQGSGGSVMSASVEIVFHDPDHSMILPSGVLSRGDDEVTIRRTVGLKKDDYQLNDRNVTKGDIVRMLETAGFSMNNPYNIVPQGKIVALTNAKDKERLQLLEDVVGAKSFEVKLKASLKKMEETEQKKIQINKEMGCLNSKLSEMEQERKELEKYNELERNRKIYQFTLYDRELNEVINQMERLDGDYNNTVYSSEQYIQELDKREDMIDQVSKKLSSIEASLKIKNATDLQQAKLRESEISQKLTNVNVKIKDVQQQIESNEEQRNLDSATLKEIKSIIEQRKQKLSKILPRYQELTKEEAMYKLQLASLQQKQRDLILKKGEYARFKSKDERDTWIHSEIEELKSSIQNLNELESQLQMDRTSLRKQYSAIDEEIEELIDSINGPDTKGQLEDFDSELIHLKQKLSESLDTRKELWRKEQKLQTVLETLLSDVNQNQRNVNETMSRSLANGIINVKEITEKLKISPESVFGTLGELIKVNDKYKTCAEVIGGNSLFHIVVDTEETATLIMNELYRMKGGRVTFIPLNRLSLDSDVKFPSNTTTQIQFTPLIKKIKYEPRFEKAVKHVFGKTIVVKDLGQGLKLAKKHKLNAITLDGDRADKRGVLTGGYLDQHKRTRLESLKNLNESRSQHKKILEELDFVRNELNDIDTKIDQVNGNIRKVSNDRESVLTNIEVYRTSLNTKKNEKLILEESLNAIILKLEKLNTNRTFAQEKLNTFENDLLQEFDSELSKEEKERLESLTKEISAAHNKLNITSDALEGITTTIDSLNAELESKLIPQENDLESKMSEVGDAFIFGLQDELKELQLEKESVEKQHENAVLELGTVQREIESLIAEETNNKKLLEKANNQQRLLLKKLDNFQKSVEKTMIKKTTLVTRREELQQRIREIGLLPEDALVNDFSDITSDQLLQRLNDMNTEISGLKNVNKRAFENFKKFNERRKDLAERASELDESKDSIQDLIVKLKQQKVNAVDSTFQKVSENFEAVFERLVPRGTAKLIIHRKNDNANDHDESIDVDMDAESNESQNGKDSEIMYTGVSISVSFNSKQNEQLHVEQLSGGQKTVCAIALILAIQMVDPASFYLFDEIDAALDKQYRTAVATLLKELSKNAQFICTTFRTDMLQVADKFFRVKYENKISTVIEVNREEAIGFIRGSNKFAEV

[2] = target: T2, Smc3^QQ-PK (S. cerevisiae) (UniProt P47037); experiment: co-IP; Smc3-PK or Smc3^QQ-PK immunoprecipitated with anti-PK from whole-cell extracts of BMOE-treated late G1 arrested cells; Smc1 (anti-MYC) and Scc2 (anti-FLAG) detected
T2 sequence: T1 sequence with K112Q, K113Q, C202E

[3] = target: T3, Smc3-PK (S. cerevisiae) (UniProt P47037); experiment: as above
T3 sequence: T1 sequence with C202E

binding [1]: binds
B1: Smc1 R1031C (protein, UniProt P32908 1-1225)
chain: MGRLVGLELSNFKSYRGVTKVGFGESNFTSIIGPNGSGKSNMMDAISFVLGVRSNHLRSNILKDLIYRGVLNDENSDDYDNEGAASSNPQSAYVKAFYQKGNKLVELMRIISRNGDTSYKIDGKTVSYKDYSIFLENENILIKAKNFLVFQGDVEQIAAQSPVELSRMFEEVSGSIQYKKEYEELKEKIEKLSKSATESIKNRRRIHGELKTYKEGINKNEEYRKQLDKKNELQKFQALWQLYHLEQQKEELTDKLSALNSEISSLKGKINNEMKSLQRSKSSFVKESAVISKQKSKLDYIFKDKEKLVSDLRLIKVPQQAAGKRISHIEKRIESLQKDLQRQKTYVERFETQLKVVTRSKEAFEEEIKQSARNYDKFKLNENDLKTYNCLHEKYLTEGGSILEEKIAVLNNDKREIQEELERFNKRADISKRRITEELSITGEKLDTQLNDLRVSLNEKNALHTERLHELKKLQSDIESANNQEYDLNFKLRETLVKIDDLSANQRETMKERKLRENIAMLKRFFPGVKGLVHDLCHPKKEKYGLAVSTILGKNFDSVIVENLTVAQECIAFLKKQRAGTASFIPLDTIETELPTLSLPDSQDYILSINAIDYEPEYEKAMQYVCGDSIICNTLNIAKDLKWKKGIRGKLVTIEGALIHKAGLMTGGISGDANNRWDKEEYQSLMSLKDKLLIQIDELSNGQRSNSIRAREVENSVSLLNSDIANLRTQVTQQKRSLDENRLEIKYHNDLIEKEIQPKITELKKKLDDLENTKDNLVKEKEALQNNIFKEFTSKIGFTIKEYENHSGELMRQQSKELQQLQKQILTVENKLQFETDRLSTTQRRYEKAQKDLENAQVEMKSLEEQEYAIEMKIGSIESKLEEHKNHLDELQKKFVTKQSELNSSEDILEDMNSNLQVLKRERDGIKEDIEKFDLERVTALKNCKISNINIPISSETTIDDLPISSTDNEAITISNSIDINYKGLPKKYKENNTDSARKELEQKIHEVEEILNELQPNARALERYDEAEGCFEVINNETEQLKAEEKKILNQFLKIKKKRKELFEKTFDYVSDHLDAIYRELTKNPNSNVELAGGNASLTIEDEDEPFNAGIKYHATPPLKRFKDMEYLSGGEKTVAALALLFAINSYQPSPFFVLDEVDAALDITNVQRIAAYIRRHRNPDLQFIVISLKNTMFEKSDALVGVYRQQQENSSKIITLDLSNYAE

binding [2]: binds
binding [3]: binds
B2: Smc1 E1102C (protein, UniProt P32908 1-1225)
chain: B1 chain with C1031R, E1102C
